ChEMBL document CHEMBL4888484, “Replenishing the malaria drug discovery pipeline: Screening and hit evaluation of the MMV Hit Generation Library 1 (HGL1) against asexual blood stage Plasmodium falciparum ,using a nano luciferase reporter read-out” (2022)
The whole screen tested about 150,000 compounds, of which about 540 (0.36%) showed an effect of 50% or more. The list shows a part of the results.

system: Plasmodium falciparum; assay: Primary screen in NF54 nanoGlo assay, in single point, at 2uM, 72h; a lower Z score goes with more inhibition; format: functional, Erythrocyte; details: timepoint 72 hour

Row | SMILES | % Inhibition | Z score
1 | Cc1nc(CC(=O)N2CC[C@@H]3OCc4cccc(c4)Oc4cccc(c4)CCC(=O)N(C)CC(=O)N[C@@H]3C2)cs1 | 6% | -0.81
2 | Nc1nc(N2CC[C@@H](O)C2)cc([C@H]2C[C@@H](O)C2)n1 | -5% | 0.65
3 | Cc1ccc(C)c(C(=O)c2ccccc2C(=O)N2CC[C@H](N)C2)c1 | -5% | 0.59
4 | CC(C)c1cc(CN(C)[C@H]2CS(=O)(=O)C[C@@H]2O)no1 | -11% | 2.16
5 | CN(CCOCc1ncc[nH]1)Cc1ccccc1 | -12% | 2.34
6 | CN1CCc2cc(CN3CCC[C@@H]3Cn3ccnc3)ccc21 | 2% | -0.43
7 | Cc1cc2c(=O)n(CCCN3C(=O)NC(C)(C)C3=O)cnc2cc1F | -2% | 0.26
8 | Fc1ccc([C@H](Cn2cnc3ccccc32)NCc2ccc3cn[nH]c3c2)cc1 | -17% | 2.21
9 | CCN(CC)C(=O)CN1C(=O)C2(NC(C)C3C(=O)N(Cc4ccccc4)C(=O)C32)c2ccccc21 (centres undefined) | -7% | 0.92
10 | Cc1cnn(C2CN(CCC(=O)Nc3sccc3C#N)C2)c1 | -1% | 0.22
11 | Cc1onc(C(=O)O)c1CN(Cc1ccc2c(c1)OCO2)C1CC1 | 3% | -0.48
12 | COc1ccc(F)c(CN2CCC[C@@](O)(CN3CCN(C(C)=O)CC3)C2=O)c1 | 0% | -0.03
13 | O=C(c1ccc(S(=O)(=O)NCc2cccnc2)cc1)N1CC[C@H](O)C1 | -18% | 2.26
14 | CC(=O)N(C)[C@H](c1ccc2c(c1)OCO2)c1nnnn1-c1ccc(C)cc1 | 31% | -3.54
15 | CC(C)C(NC1CCCn2ccnc21)C(=O)N(C)Cc1nnc2n1CCC2 (centres undefined) | -18% | 2.72
16 | C[C@@H](C(=O)N(C)CCc1nccs1)n1nnnc1C(C)(C)C | -6% | 0.63
17 | Cc1nc(CNC(=O)N(C)Cc2noc(CC(C)C)n2)n[nH]1 | -9% | 1.27
18 | CC(C)c1nc2ccc(C(=O)NCCC3=CCCCC3)cc2o1 | -15% | 1.39
19 | CCC(=O)N1CCCCCCN(C)C(=O)[C@@H]2CCC[C@@H]21 | -2% | 0.34
20 | Cc1cc(C2OCCO2)c(C)cc1CN[C@@]1(C)CCOC1 | 10% | -2.01
21 | O=C(NCCc1cn2c(n1)CCCC2)c1cccnc1 | -1% | 0.23

Row | SMILES | % Inhibition | Z score
22 | O=C1[C@@H](OC2CCN(S(=O)(=O)c3cc(Cl)ccc3Cl)CC2)CCN1CC1CC1 | -19% | 3.32
23 | C[C@H](NCc1ncc(Br)cc1Cl)c1ncn(C)n1 | 4% | -0.62
24 | CCc1nnc(CN(C)C(=O)c2cc3ccc(OC)cc3n2C)o1 | -9% | 1.29
25 | O=c1c(CNC2CCCC2)cc2ccc(Cl)cc2n1CCOc1ccccc1 | 2% | -0.3
26 | CC1CC(C(=O)O)CN(C(=O)c2noc(-c3cccc(F)c3)n2)C1 (centres undefined) | -7% | 1.09
27 | CC(C)C(=O)N1CCN(c2c(F)c(F)c(F)c(F)c2F)CC1 | -2% | 0.24
28 | O=C(NC1CC1)C1(F)CCN(Cc2ccncc2)CC1 | -10% | 1.25
29 | Cc1ccoc1CN(C)S(=O)(=O)C1(C)CC1 | -3% | 0.54
30 | O=C(C(=O)N1CCN(Cc2ccccc2)CC1)c1ccc[nH]1 | -13% | 1.25
31 | CCN(Cc1ccoc1)[C@@H](C)c1nc2ccccc2c(=O)[nH]1 | -15% | 1.52
32 | CCCN1CCN(Cc2cnn(CC)c2C)[C@H]2CS(=O)(=O)C[C@H]21 | -16% | 2.32
33 | O=C(CN1C(=O)c2ccccc2C1=O)NOCc1ccccc1 | -12% | 1.56
34 | CCOC[C@@H](O)CN(Cc1c(-c2ccccc2)nn(C)c1Oc1ccccc1)C1CC1 | 2% | -0.17
35 | O=C(Nc1cccc(-c2ccc(N3CCCCC3)nn2)c1)c1ccco1 | -6% | 0.82
36 | O=C1CN(C(=O)[C@H]2CC[C@H](Cn3c(=O)[nH]c4ccccc4c3=O)CC2)CCN1 | -3% | 0.58
37 | Cc1ncc(-c2cc(-c3ccc4c(c3)OCO4)nc(N)c2C#N)n1C | -20% | 2.02
38 | CC1CCCN(C(C(=O)NC2CCCC2)c2ccc(Cl)cc2)C1 (centres undefined) | 6% | -0.9
39 | Cn1cccc(C(=O)N2CCC(Oc3nncs3)CC2)c1=O | 22% | -2.82
40 | COc1cccc(-c2noc(N3CC4CCC3C4)n2)c1 (centres undefined) | -5% | 0.73
41 | CCn1cc(Br)cc1C(=O)[C@H](C#N)C(=O)NC | -3% | 0.32
42 | CN(Cc1nnc2n1CCC2)C(=O)[C@@H]1CC=CCC1 | 1% | -0.18
